This is an account of results in PMC2546418.

Protein sequences, listed by entry. Tags and fused reporters are not part of them. Lines headed by an entry give the natural chain unless they say otherwise; changes in a name come on top.
UniProt P45481: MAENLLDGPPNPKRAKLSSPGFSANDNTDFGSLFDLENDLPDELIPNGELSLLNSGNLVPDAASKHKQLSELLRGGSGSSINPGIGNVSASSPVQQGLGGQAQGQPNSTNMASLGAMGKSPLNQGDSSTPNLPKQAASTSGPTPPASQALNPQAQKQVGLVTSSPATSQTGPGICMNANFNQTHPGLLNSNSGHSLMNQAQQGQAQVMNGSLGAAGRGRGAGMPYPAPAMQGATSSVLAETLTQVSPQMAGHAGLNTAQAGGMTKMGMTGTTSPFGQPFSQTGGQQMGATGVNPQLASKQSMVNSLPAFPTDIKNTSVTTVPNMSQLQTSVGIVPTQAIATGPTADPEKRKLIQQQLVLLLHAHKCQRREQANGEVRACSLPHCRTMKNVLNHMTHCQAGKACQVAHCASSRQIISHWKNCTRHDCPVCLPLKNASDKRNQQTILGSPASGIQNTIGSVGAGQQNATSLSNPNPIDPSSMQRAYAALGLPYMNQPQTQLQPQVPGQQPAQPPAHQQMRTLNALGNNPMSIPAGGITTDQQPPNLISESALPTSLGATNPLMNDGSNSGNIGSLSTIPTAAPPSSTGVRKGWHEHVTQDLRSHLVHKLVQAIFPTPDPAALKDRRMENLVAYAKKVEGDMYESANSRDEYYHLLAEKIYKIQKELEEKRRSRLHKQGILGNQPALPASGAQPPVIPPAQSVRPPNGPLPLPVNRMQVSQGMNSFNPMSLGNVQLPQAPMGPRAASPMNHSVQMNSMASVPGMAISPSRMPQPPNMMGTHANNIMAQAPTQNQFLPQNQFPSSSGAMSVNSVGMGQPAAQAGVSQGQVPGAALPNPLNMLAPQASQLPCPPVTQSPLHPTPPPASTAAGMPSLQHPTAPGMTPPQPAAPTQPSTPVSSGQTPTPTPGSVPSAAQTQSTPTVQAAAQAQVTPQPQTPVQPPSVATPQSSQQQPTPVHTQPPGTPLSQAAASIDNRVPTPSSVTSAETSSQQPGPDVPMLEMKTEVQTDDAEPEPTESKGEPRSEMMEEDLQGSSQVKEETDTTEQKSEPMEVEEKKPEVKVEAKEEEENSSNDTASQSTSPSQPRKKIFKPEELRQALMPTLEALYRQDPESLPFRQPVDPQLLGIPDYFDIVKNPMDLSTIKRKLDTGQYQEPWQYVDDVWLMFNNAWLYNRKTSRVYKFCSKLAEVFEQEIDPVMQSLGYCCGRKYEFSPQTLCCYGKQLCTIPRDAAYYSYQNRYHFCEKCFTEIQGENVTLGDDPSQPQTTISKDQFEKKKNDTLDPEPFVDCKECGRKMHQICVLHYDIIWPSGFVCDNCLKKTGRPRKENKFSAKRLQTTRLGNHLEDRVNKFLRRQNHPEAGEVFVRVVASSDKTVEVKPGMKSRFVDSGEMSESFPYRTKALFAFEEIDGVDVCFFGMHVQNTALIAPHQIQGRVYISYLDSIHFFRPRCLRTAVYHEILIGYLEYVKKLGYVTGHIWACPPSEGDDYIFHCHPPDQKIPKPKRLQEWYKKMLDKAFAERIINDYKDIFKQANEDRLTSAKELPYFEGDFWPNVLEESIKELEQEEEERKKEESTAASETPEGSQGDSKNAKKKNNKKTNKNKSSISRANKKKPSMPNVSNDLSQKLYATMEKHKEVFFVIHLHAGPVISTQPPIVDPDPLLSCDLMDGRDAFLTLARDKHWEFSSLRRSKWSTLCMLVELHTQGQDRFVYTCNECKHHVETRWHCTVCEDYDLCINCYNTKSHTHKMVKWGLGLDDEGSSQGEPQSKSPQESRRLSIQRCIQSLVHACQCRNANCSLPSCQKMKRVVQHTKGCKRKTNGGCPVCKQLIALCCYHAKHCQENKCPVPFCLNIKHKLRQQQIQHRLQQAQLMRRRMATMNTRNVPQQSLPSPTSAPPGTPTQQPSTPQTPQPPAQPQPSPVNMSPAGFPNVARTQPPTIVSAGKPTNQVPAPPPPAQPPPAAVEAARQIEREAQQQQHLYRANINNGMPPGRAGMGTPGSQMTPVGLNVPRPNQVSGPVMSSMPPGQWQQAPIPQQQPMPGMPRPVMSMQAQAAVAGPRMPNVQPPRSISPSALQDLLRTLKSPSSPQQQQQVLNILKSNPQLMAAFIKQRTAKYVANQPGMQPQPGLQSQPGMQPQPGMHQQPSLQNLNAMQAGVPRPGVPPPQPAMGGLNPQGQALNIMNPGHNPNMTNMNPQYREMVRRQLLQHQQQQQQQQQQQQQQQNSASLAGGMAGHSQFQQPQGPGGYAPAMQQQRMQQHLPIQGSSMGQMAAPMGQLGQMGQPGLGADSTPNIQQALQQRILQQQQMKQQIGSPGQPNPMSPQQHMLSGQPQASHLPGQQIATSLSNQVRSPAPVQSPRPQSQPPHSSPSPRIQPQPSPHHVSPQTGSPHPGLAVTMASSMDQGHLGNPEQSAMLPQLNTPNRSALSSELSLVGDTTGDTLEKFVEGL

No constants are given. Whether binding was seen depends on the method and setting. Binding seen in cells or lysates may run through a third protein. Some binding calls cover weakened binding; strength is not graded here. For some assays here: Sequences can lack the tags named with a protein.

Test [1] deals with GST-MIER1β fusion protein (full-length) (human) (UniProt Q8N108). As to the kind of experiment: pull-down; GST pull-down: 0.35 μg of GST or equimolar amounts of GST fusion proteins with 100,000 cpm of 35S-labelled in vitro translation products; as in ref. 7; only the target purified.
Test [2] deals with T1, GST-MIER1(1–283) fusion protein, N-terminal half of MIER1β (human) (UniProt Q8N108).
T1 sequence: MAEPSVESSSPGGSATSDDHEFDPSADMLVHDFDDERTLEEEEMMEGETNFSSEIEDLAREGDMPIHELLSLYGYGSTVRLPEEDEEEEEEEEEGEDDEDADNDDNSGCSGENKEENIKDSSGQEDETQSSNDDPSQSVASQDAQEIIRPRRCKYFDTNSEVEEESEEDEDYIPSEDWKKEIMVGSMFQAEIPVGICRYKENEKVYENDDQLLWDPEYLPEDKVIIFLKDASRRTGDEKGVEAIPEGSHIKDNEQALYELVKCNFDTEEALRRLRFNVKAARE
Described as above.

For test [3], the target named is myc-tagged full-length MIER1β expressed in HEK293 cells (human) (UniProt Q8N108). As to the kind of experiment: co-IP; HEK293 cells co-transfected with flag-CBP(1094–2441) and myc-MIER1β; anti-myc immunoprecipitation, Western blot with anti-flag. For orientation: In western blotting, separated proteins are transferred to a membrane and probed.

As to “CBP(1–1096), in vitro translated, 35S-labelled (from UniProt P45481 1-1096) (domain or fragment)”, in test [1], the binding result is on record as “no binding (tested: equimolar to 0.35 μg GST)”. Take “CBP(1094–2441), in vitro translated, 35S-labelled (from UniProt P45481 1094-2441) (domain or fragment)”: the binding entry in test [2] and in test [1] was “binds” each time. With “full-length mouse CBP (Creb-binding protein), in vitro translated, 35S-labelled (from UniProt P45481 1-2441)”, the binding result in test [1] is listed as “binds”. With “flag-tagged CBP(1094–2441) expressed in HEK293 cells (from UniProt P45481 1094-2441) (domain or fragment)”, the binding entry in test [3] is “binds”.
